The other results are listed elsewhere or left out.
Experiments:
Test in all cases: glycan array binding signal (z-score within array); higher = stronger binding
Conditions in all cases: glycan notation: IUPAC condensed, linker removed
Gal(b1-4)Glc = target: Gal(b1-4)Glc
Outline: (§1)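 Arrays were curated from the Consortium for Functional Glycomics database, 3228 in total, and kept only where the protein sequence was available. Binding is expressed as a within-array Z-score. This score was averaged across arrays of the same protein sequence at different concentrations or buffers and across linkers, and negative values can be read as non-binding.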

Gal(b1-4)Glc6S = target: Gal(b1-4)Glc6S
Outline: as §1

Gal(b1-4)GlcNAc = target: Gal(b1-4)GlcNAc
Outline: as §1

[1] = target: Gal(b1-4)GlcNAc(a1-6)Gal(b1-4)GlcNAc
Outline: as §1

Gal(b1-4)GlcNAc(b1-2)Man = target: Gal(b1-4)GlcNAc(b1-2)Man
Outline: as §1

[2] = target: Gal(b1-4)GlcNAc(b1-2)Man(a1-3)Man(b1-4)GlcNAc(b1-4)GlcNAc
Outline: as §1

[3] = target: Gal(b1-4)GlcNAc(b1-2)Man(a1-3)[Gal(b1-4)GlcNAc(b1-2)Man(a1-6)]Man(b1-4)GlcNAc(b1-4)GlcNAc
Outline: as §1

[4] = target: Gal(b1-4)GlcNAc(b1-2)Man(a1-3)[Gal(b1-4)GlcNAc(b1-2)Man(a1-6)]Man(b1-4)GlcNAc(b1-4)[Fuc(a1-6)]GlcNAc
Outline: as §1

[5] = target: Gal(b1-4)GlcNAc(b1-2)Man(a1-3)[Gal(b1-4)GlcNAc(b1-2)Man(a1-6)][Gal(b1-4)GlcNAc(b1-4)]Man(b1-4)GlcNAc(b1-4)[Fuc(a1-6)]GlcNAc
Outline: as §1

[6] = target: Gal(b1-4)GlcNAc(b1-2)Man(a1-3)[Gal(b1-4)GlcNAc(b1-2)Man(a1-6)][GlcNAc(b1-4)]Man(b1-4)GlcNAc(b1-4)[Fuc(a1-6)]GlcNAc
Outline: as §1

[7] = target: Gal(b1-4)GlcNAc(b1-2)Man(a1-3)[GlcNAc(b1-2)Man(a1-6)]Man(b1-4)GlcNAc(b1-4)GlcNAc
Outline: as §1

[8] = target: Gal(b1-4)GlcNAc(b1-2)Man(a1-3)[GlcNAc(b1-4)][Gal(b1-4)GlcNAc(b1-2)Man(a1-6)]Man(b1-4)GlcNAc(b1-4)GlcNAc
Outline: as §1

[9] = target: Gal(b1-4)GlcNAc(b1-2)Man(a1-3)[Man(a1-6)]Man(b1-4)GlcNAc(b1-4)GlcNAc
Outline: as §1

[10] = target: Gal(b1-4)GlcNAc(b1-2)Man(a1-6)Man(b1-4)GlcNAc(b1-4)GlcNAc
Outline: as §1

[11] = target: Gal(b1-4)GlcNAc(b1-2)Man(a1-6)[GlcNAc(b1-2)Man(a1-3)]Man(b1-4)GlcNAc(b1-4)GlcNAc
Outline: as §1

[12] = target: Gal(b1-4)GlcNAc(b1-2)Man(a1-6)[Man(a1-3)]Man(b1-4)GlcNAc(b1-4)GlcNAc
Outline: as §1

[13] = target: Gal(b1-4)GlcNAc(b1-2)[Gal(b1-4)GlcNAc(b1-4)]Man(a1-3)[Gal(b1-4)GlcNAc(b1-2)Man(a1-6)]Man(b1-4)GlcNAc(b1-4)GlcNAc
Outline: as §1

[14] = target: Gal(b1-4)GlcNAc(b1-2)[Gal(b1-4)GlcNAc(b1-4)]Man(a1-3)[Gal(b1-4)GlcNAc(b1-2)[Gal(b1-4)GlcNAc(b1-6)]Man(a1-6)]Man(b1-4)GlcNAc(b1-4)GlcNAc
Outline: as §1

[15] = target: Gal(b1-4)GlcNAc(b1-2)[Gal(b1-4)GlcNAc(b1-4)]Man(a1-3)[GlcNAc(b1-4)][Gal(b1-4)GlcNAc(b1-2)Man(a1-6)]Man(b1-4)GlcNAc(b1-4)GlcNAc
Outline: as §1

[16] = target: Gal(b1-4)GlcNAc(b1-2)[Gal(b1-4)GlcNAc(b1-4)]Man(a1-3)[GlcNAc(b1-4)][Gal(b1-4)GlcNAc(b1-2)[Gal(b1-4)GlcNAc(b1-6)]Man(a1-6)]Man(b1-4)GlcNAc(b1-4)GlcNAc
Outline: as §1

[17] = target: Gal(b1-4)GlcNAc(b1-2)[Gal(b1-4)GlcNAc(b1-6)]Man(a1-6)[Gal(b1-4)GlcNAc(b1-2)Man(a1-3)]Man(b1-4)GlcNAc(b1-4)GlcNAc
Outline: as §1

[18] = target: Gal(b1-4)GlcNAc(b1-2)[Gal(b1-4)GlcNAc(b1-6)]Man(a1-6)[Gal(b1-4)GlcNAc(b1-2)Man(a1-3)]Man(b1-4)GlcNAc(b1-4)[Fuc(a1-6)]GlcNAc
Outline: as §1

B1: rCnSL-A (Clitocybe nebularis) (protein)
chain: VNPNLPGPNDVFVGFRGTNNIVGAIYEKDGIKDTPLNNGADAEMGPGSYITDGLFTARIFASGSAGNNPGTTATVCKIYASGVQWRGAPKGYIPVAYFGNGPTAEQRRQTYLRTLGLPGTAIRFGNLNTNPGQGPTAPRQMVVPPGPLRSLLKASCFPAADTRLPQTLHYFEKRVDWNIITAADSQTWGH
glycan array binding signal (z-score) (Gal(b1-4)Glc): -0.203 | glycan array binding signal (z-score) (Gal(b1-4)Glc6S): -0.219 | glycan array binding signal (z-score) (Gal(b1-4)GlcNAc): -0.215 | glycan array binding signal (z-score) [1]: 2.03 | glycan array binding signal (z-score) (Gal(b1-4)GlcNAc(b1-2)Man): -0.181 | glycan array binding signal (z-score) [2]: -0.164 | glycan array binding signal (z-score) [3]: -0.203 | glycan array binding signal (z-score) [4]: 0.142 | glycan array binding signal (z-score) [5]: 0.115 | glycan array binding signal (z-score) [6]: 0.061 | glycan array binding signal (z-score) [7]: -0.241 | glycan array binding signal (z-score) [8]: 0.118 | glycan array binding signal (z-score) [9]: -0.103 | glycan array binding signal (z-score) [10]: -0.216 | glycan array binding signal (z-score) [11]: -0.213 | glycan array binding signal (z-score) [12]: -0.099 | glycan array binding signal (z-score) [13]: 2.67 | glycan array binding signal (z-score) [14]: 1.78 | glycan array binding signal (z-score) [15]: 0.142 | glycan array binding signal (z-score) [16]: 0.528 | glycan array binding signal (z-score) [17]: 0.425 | glycan array binding signal (z-score) [18]: 1.27

From the supplement of paper PMC8728848
